Source: doi:10.1101/2024.05.01.591800
These are yes or no findings as the source states them, for the method shown. In cells and extracts the contact can be indirect. Some entries that bind do so weakly or less than the wild type. For some of these results: Sequences can lack the tags named with a protein.

What was measured:
[1] = target: T1, FLAG-tagged GBP5 (guanylate-binding protein 5) (UniProt Q96PP8); test: co-IP; 293T cells co-transfected for 48 h with FLAG-GBP5 (WT or mutant) and a MYC-tagged OST subunit; lysates (Pierce IP Lysis Buffer) immunoprecipitated overnight at 4°C with anti-FLAG on Dynabeads Protein G; washes include 500 mM NaCl; anti-MYC blot
T1 sequence: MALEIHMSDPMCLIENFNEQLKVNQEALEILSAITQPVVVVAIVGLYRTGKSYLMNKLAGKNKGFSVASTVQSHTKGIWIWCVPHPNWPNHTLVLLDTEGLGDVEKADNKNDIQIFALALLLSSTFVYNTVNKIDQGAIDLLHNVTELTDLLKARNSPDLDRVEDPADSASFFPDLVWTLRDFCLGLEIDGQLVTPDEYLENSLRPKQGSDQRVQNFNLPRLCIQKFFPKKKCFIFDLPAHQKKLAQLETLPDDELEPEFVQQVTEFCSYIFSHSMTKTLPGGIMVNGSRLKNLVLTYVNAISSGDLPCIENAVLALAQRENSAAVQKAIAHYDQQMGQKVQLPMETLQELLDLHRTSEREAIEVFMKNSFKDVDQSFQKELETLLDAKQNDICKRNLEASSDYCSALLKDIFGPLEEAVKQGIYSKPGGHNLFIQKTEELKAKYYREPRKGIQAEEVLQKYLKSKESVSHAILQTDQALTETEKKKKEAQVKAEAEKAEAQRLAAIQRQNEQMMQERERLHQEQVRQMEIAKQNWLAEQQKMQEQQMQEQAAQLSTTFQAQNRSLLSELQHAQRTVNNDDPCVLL

[2] = target: T2, FLAG-GBP5 mutant M5 (E417A/K421A point mutations in the MD domain) (UniProt Q96PP8); test: as above
T2 sequence: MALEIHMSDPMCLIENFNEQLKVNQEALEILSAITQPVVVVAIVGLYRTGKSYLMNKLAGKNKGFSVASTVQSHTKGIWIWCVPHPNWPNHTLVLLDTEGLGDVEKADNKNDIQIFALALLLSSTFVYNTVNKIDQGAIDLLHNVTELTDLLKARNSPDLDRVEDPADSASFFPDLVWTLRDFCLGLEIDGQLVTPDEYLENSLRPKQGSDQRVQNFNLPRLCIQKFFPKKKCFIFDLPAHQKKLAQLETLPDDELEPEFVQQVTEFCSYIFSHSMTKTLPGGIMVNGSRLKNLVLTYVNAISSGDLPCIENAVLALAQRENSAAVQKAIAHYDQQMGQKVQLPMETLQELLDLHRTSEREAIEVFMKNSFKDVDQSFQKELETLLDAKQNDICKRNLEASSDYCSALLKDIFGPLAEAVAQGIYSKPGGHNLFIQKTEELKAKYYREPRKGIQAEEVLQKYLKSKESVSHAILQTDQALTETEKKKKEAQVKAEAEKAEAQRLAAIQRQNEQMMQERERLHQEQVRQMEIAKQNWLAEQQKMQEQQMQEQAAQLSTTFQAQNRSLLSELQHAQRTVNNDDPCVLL

[3] = target: T1, FLAG-tagged GBP5 (guanylate-binding protein 5); test: co-IP; 293T cells transfected for 48 h with FLAG-GBP5 or FLAG-GBP5-C583A; anti-FLAG immunoprecipitation; washes include 500 mM NaCl; blots for endogenous RPN2, RPN1 and DDOST
[4] = target: T3, FLAG-tagged GBP5-C583A (UniProt Q96PP8); test: as above
T3 sequence: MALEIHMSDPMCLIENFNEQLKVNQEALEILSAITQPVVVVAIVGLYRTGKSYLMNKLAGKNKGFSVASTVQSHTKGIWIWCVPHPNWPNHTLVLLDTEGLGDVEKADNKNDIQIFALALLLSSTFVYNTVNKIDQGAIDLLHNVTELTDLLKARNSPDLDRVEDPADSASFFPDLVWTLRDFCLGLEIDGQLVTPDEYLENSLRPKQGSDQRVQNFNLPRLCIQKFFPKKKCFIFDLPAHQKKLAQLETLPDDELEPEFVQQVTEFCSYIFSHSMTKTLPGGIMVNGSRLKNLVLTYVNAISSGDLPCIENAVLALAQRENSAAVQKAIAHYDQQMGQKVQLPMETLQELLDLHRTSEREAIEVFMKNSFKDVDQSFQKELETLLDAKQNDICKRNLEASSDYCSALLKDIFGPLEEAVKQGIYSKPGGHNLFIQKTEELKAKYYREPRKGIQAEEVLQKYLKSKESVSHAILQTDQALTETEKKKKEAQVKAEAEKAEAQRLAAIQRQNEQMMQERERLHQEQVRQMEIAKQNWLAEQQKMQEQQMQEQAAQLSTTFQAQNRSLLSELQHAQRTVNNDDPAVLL

[5] = target: T4, IFN-induced endogenous GBP5 (human (endogenous in HEK 293T)) (UniProt Q96PP8); test: co-IP; 293T cells stimulated with 100 ng/ml IFN-γ; lysates immunoprecipitated with anti-GBP5 antibody; blots for endogenous RPN1, RPN2, DDOST and GBP5
T4 sequence: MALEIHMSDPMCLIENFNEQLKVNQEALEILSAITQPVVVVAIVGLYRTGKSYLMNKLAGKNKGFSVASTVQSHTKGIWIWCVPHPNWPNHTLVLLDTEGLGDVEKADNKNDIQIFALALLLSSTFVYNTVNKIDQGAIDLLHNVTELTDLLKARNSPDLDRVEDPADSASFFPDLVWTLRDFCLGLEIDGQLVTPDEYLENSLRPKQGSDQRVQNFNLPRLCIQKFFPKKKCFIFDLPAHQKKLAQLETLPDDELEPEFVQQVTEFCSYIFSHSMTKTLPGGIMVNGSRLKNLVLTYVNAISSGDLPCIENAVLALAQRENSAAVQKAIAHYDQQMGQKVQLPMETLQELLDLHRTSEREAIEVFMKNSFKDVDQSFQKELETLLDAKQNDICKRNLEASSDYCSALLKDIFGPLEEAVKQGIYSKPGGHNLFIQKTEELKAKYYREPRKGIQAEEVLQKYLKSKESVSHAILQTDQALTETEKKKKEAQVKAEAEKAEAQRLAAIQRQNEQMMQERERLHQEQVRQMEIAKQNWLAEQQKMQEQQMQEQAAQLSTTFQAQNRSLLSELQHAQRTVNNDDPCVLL

B1: MYC-tagged RPN1 (protein, UniProt P04843 24-607)
chain: ASSEAPPLINEDVKRTVDLSSHLAKVTAEVVLAHLGGGSTSRATSFLLALEPELEARLAHLGVQVKGEDEEENNLEVRETKIKGKSGRFFTVKLPVALDPGAKISVIVETVYTHVLHPYPTQITQSEKQFVVFEGNHYFYSPYPTKTQTMRVKLASRNVESYTKLGNPTRSEDLLDYGPFRDVPAYSQDTFKVHYENNSPFLTITSMTRVIEVSHWGNIAVEENVDLKHTGAVLKGPFSRYDYQRQPDSGISSIRSFKTILPAAAQDVYYRDEIGNVSTSHLLILDDSVEMEIRPRFPLFGGWKTHYIVGYNLPSYEYLYNLGDQYALKMRFVDHVFDEQVIDSLTVKIILPEGAKNIEIDSPYEISRAPDELHYTYLDTFGRPVIVAYKKNLVEQHIQDIVVHYTFNKVLMLQEPLLVVAAFYILFFTVIIYVRLDFSITKDPAAEARMKVACITEQVLTLVNKRIGLYRHFDETVNRYKQSRDISTLNSGKKSLETEHKALTSEIALLQSRLKTEGSDLCDRVSEMQKLDAQVKELVLKSAVEAERLVAGKLKKDTYIENEKLISGKRQELVTKIDHILDAL
binding [1]: binds
binding [2]: no binding

B2: MYC-tagged DDOST (protein, UniProt P39656 43-456)
chain: SGPRTLVLLDNLNVRETHSLFFRSLKDRGFELTFKTADDPSLSLIKYGEFLYDNLIIFSPSVEDFGGNINVETISAFIDGGGSVLVAASSDIGDPLRELGSECGIEFDEEKTAVIDHHNYDISDLGQHTLIVADTENLLKAPTIVGKSSLNPILFRGVGMVADPDNPLVLDILTGSSTSYSFFPDKPITQYPHAVGKNTLLIAGLQARNNARVIFSGSLDFFSDSFFNSAVQKAAPGSQRYSQTGNYELAVALSRWVFKEEGVLRVGPVSHHRVGETAPPNAYTVTDLVEYSIVIQQLSNGKWVPFDGDDIQLEFVRIDPFVRTFLKKKGGKYSVQFKLPDVYGVFQFKVDYNRLGYTHLYSSTQVSVRPLQHTQYERFIPSAYPYYASAFSMMLGLFIFSIVFLHMKEKEKSD
binding [1]: binds
binding [2]: no binding

B3: endogenous RPN1 (protein, UniProt P04843 24-607)
chain: ASSEAPPLINEDVKRTVDLSSHLAKVTAEVVLAHLGGGSTSRATSFLLALEPELEARLAHLGVQVKGEDEEENNLEVRETKIKGKSGRFFTVKLPVALDPGAKISVIVETVYTHVLHPYPTQITQSEKQFVVFEGNHYFYSPYPTKTQTMRVKLASRNVESYTKLGNPTRSEDLLDYGPFRDVPAYSQDTFKVHYENNSPFLTITSMTRVIEVSHWGNIAVEENVDLKHTGAVLKGPFSRYDYQRQPDSGISSIRSFKTILPAAAQDVYYRDEIGNVSTSHLLILDDSVEMEIRPRFPLFGGWKTHYIVGYNLPSYEYLYNLGDQYALKMRFVDHVFDEQVIDSLTVKIILPEGAKNIEIDSPYEISRAPDELHYTYLDTFGRPVIVAYKKNLVEQHIQDIVVHYTFNKVLMLQEPLLVVAAFYILFFTVIIYVRLDFSITKDPAAEARMKVACITEQVLTLVNKRIGLYRHFDETVNRYKQSRDISTLNSGKKSLETEHKALTSEIALLQSRLKTEGSDLCDRVSEMQKLDAQVKELVLKSAVEAERLVAGKLKKDTYIENEKLISGKRQELVTKIDHILDAL
binding [3]: binds
binding [4]: no binding
binding [5]: binds

B4: endogenous DDOST (protein, UniProt P39656 43-456)
chain: SGPRTLVLLDNLNVRETHSLFFRSLKDRGFELTFKTADDPSLSLIKYGEFLYDNLIIFSPSVEDFGGNINVETISAFIDGGGSVLVAASSDIGDPLRELGSECGIEFDEEKTAVIDHHNYDISDLGQHTLIVADTENLLKAPTIVGKSSLNPILFRGVGMVADPDNPLVLDILTGSSTSYSFFPDKPITQYPHAVGKNTLLIAGLQARNNARVIFSGSLDFFSDSFFNSAVQKAAPGSQRYSQTGNYELAVALSRWVFKEEGVLRVGPVSHHRVGETAPPNAYTVTDLVEYSIVIQQLSNGKWVPFDGDDIQLEFVRIDPFVRTFLKKKGGKYSVQFKLPDVYGVFQFKVDYNRLGYTHLYSSTQVSVRPLQHTQYERFIPSAYPYYASAFSMMLGLFIFSIVFLHMKEKEKSD
binding [3]: binds
binding [4]: no binding
binding [5]: binds
